# Assay results published in the supplement of paper PMC8728848.
# The other results are listed elsewhere or left out.
# Assays:
# Test in all cases: glycan array binding signal (z-score within array); higher = stronger binding
# Details in all cases: glycan notation: IUPAC condensed, linker removed
# [1] = biological target: Neu5Ac(a2-3)Gal(b1-3)[Fuc(a1-4)]GlcNAc(b1-3)Gal(b1-3)[Fuc(a1-4)]GlcNAc
# Outline: (§1)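 The Consortium for Functional Glycomics database supplied 3228 glycan arrays, of which those lacking an available protein sequence were dropped. The binding signal, a within-array Z-score, was averaged across arrays of the same protein sequence and across linkers. Negative scores can be read as non-binding.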
# [2] = biological target: Neu5Ac(a2-3)Gal(b1-3)[Fuc(a1-4)]GlcNAc(b1-3)Gal(b1-4)[Fuc(a1-3)]GlcNAc
# Outline: as §1
# [3] = biological target: Neu5Ac(a2-3)Gal(b1-3)[Neu5Ac(a2-3)Gal(b1-4)]GlcNAc
# Outline: as §1
# [4] = biological target: Neu5Ac(a2-3)Gal(b1-3)[Neu5Ac(a2-6)]GalNAc
# Outline: as §1
# [5] = biological target: Neu5Ac(a2-3)Gal(b1-3)[Neu5Ac(a2-6)]GlcNAc(b1-3)[Fuc(a1-3)[Gal(b1-4)]GlcNAc(b1-6)]Gal(b1-4)Glc
# Outline: as §1
# Neu5Ac(a2-3)Gal(b1-4)Glc = biological target: Neu5Ac(a2-3)Gal(b1-4)Glc
# Outline: as §1
# [6] = biological target: Neu5Ac(a2-3)Gal(b1-4)GlcNAc
# Outline: as §1
# [7] = biological target: Neu5Ac(a2-3)Gal(b1-4)GlcNAc(b1-2)Man
# Outline: as §1
# [8] = biological target: Neu5Ac(a2-3)Gal(b1-4)GlcNAc(b1-2)Man(a1-3)[GlcNAc(b1-2)Man(b1-4)GlcNAc(b1-2)Man(a1-6)]Man(b1-4)GlcNAc(b1-4)GlcNAc
# Outline: as §1
# [9] = biological target: Neu5Ac(a2-3)Gal(b1-4)GlcNAc(b1-2)Man(a1-3)[Neu5Ac(a2-3)Gal(b1-4)GlcNAc(b1-2)Man(a1-6)]Man(b1-4)GlcNAc(b1-4)[Fuc(a1-6)]GlcNAc
# Outline: as §1
# [10] = biological target: Neu5Ac(a2-3)Gal(b1-4)GlcNAc(b1-2)Man(a1-3)[Neu5Ac(a2-6)Gal(b1-4)GlcNAc(b1-2)Man(a1-6)]Man(b1-4)GlcNAc(b1-4)GlcNAc
# Outline: as §1
# [11] = biological target: Neu5Ac(a2-3)Gal(b1-4)GlcNAc(b1-2)[Neu5Ac(a2-3)Gal(b1-4)GlcNAc(b1-6)]Man(a1-6)[Neu5Ac(a2-3)Gal(b1-4)GlcNAc(b1-2)Man(a1-3)]Man(b1-4)GlcNAc(b1-4)GlcNAc
# Outline: as §1
# [12] = biological target: Neu5Ac(a2-3)Gal(b1-4)GlcNAc(b1-3)Gal
# Outline: as §1
# [13] = biological target: Neu5Ac(a2-3)Gal(b1-4)GlcNAc(b1-3)Gal(b1-3)GlcNAc
# Outline: as §1
# [14] = biological target: Neu5Ac(a2-3)Gal(b1-4)GlcNAc(b1-3)Gal(b1-4)GlcNAc
# Outline: as §1
# [15] = biological target: Neu5Ac(a2-3)Gal(b1-4)GlcNAc(b1-3)Gal(b1-4)GlcNAc(b1-3)Gal(b1-4)GlcNAc
# Outline: as §1
# [16] = biological target: Neu5Ac(a2-3)Gal(b1-4)GlcNAc(b1-3)Gal(b1-4)[Fuc(a1-3)]GlcNAc
# Outline: as §1
# [17] = biological target: Neu5Ac(a2-3)Gal(b1-4)GlcNAc(b1-3)GalNAc
# Outline: as §1
# [18] = biological target: Neu5Ac(a2-3)Gal(b1-4)GlcNAc(b1-3)[Neu5Ac(a2-3)Gal(b1-4)GlcNAc(b1-6)]GalNAc
# Outline: as §1
# [19] = biological target: Neu5Ac(a2-3)Gal(b1-4)GlcNAc(b1-6)GalNAc
# Outline: as §1
# [20] = biological target: Neu5Ac(a2-3)Gal(b1-4)GlcNAc(b1-6)[Gal(b1-3)]GalNAc
# Outline: as §1
# [21] = biological target: Neu5Ac(a2-3)Gal(b1-4)GlcNAc(b1-6)[Neu5Ac(a2-3)Gal(b1-3)]GalNAc
# Outline: as §1
# [22] = biological target: Neu5Ac(a2-3)Gal(b1-4)GlcNAc6S
# Outline: as §1
# [23] = biological target: Neu5Ac(a2-3)Gal(b1-4)[Fuc(a1-3)]GlcNAc
# Outline: as §1
# [24] = biological target: Neu5Ac(a2-3)Gal(b1-4)[Fuc(a1-3)]GlcNAc(b1-3)Gal
# Outline: as §1
# [25] = biological target: Neu5Ac(a2-3)Gal(b1-4)[Fuc(a1-3)]GlcNAc(b1-3)Gal(b1-4)GlcNAc
# Outline: as §1
# [26] = biological target: Neu5Ac(a2-3)Gal(b1-4)[Fuc(a1-3)]GlcNAc(b1-3)Gal(b1-4)[Fuc(a1-3)]GlcNAc(b1-3)Gal(b1-4)[Fuc(a1-3)]GlcNAc
# Outline: as §1
# [27] = biological target: Neu5Ac(a2-3)Gal(b1-4)[Fuc(a1-3)]GlcNAc(b1-3)GalNAc
# Outline: as §1
# [28] = biological target: Neu5Ac(a2-3)Gal(b1-4)[Fuc(a1-3)]GlcNAc(b1-6)[Gal(b1-3)]GalNAc
# Outline: as §1
# [29] = biological target: Neu5Ac(a2-3)Gal(b1-4)[Fuc(a1-3)]GlcNAc(b1-6)[Neu5Ac(a2-3)Gal(b1-3)]GalNAc
# Outline: as §1
binder,measurement,setting,value
"Gal 4 (Homo sapiens), Q8K419 (protein) MAYVPAPGYQPTYNPTLPYKRPIPGGLSVGMSVYIQGMAKENMRRFHVNFAVGQDDGADVAFHFNPRFDGWDKVVFNTMQSGQWGKEEKKKSMPFQKGKHFELVFMVMPEHYKVVVNGNSFYEYGHRLPVQMVTHLQVDGDLELQSINFLGGQPAAAPYPGAMTIPAYPAGSPGYNPPQMNTLPVMTGPPVFNPRVPYVGALQGGLTVRRTIIIKGYVLPTARNFVINFKVGSSGDIALHLNPRIGDSVVRNSFMNGSWGAEERKVAYNPFGPGQFFDLSIRCGMDRFKVFANGQHLFDFSHRFQAFQMVDTLEINGDITLSYVQI",glycan array binding signal (z-score),[1],-0.205
same,glycan array binding signal (z-score),[2],-0.198
same,glycan array binding signal (z-score),[3],-0.204
same,glycan array binding signal (z-score),[4],-0.194
same,glycan array binding signal (z-score),[5],-0.216
same,glycan array binding signal (z-score),Neu5Ac(a2-3)Gal(b1-4)Glc,-0.18
same,glycan array binding signal (z-score),[6],-0.192
same,glycan array binding signal (z-score),[7],-0.197
same,glycan array binding signal (z-score),[8],-0.2
same,glycan array binding signal (z-score),[9],-0.331
same,glycan array binding signal (z-score),[10],-0.201
same,glycan array binding signal (z-score),[11],-0.571
same,glycan array binding signal (z-score),[12],-0.202
same,glycan array binding signal (z-score),[13],-0.193
same,glycan array binding signal (z-score),[14],-0.19
same,glycan array binding signal (z-score),[15],-0.188
same,glycan array binding signal (z-score),[16],-0.198
same,glycan array binding signal (z-score),[17],-0.205
same,glycan array binding signal (z-score),[18],-0.217
same,glycan array binding signal (z-score),[19],-0.214
same,glycan array binding signal (z-score),[20],-0.183
same,glycan array binding signal (z-score),[21],-0.209
same,glycan array binding signal (z-score),[22],-0.198
same,glycan array binding signal (z-score),[23],-0.204
same,glycan array binding signal (z-score),[24],-0.208
same,glycan array binding signal (z-score),[25],-0.176
same,glycan array binding signal (z-score),[26],-0.198
same,glycan array binding signal (z-score),[27],-0.235
same,glycan array binding signal (z-score),[28],-0.179
same,glycan array binding signal (z-score),[29],-0.124
